# Data reported in paper PMC5836133.
# The list shows a part of the results. At the low end of the ranking, values are background and their order means little.
# Test system: T1, GST-NbGlk1(82-244)
# T1 sequence: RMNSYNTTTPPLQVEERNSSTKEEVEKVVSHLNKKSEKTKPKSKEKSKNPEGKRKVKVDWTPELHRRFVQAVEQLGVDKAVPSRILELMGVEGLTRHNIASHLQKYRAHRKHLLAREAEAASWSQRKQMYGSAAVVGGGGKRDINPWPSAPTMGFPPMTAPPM
# Experiment: protein-binding microarray;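 also: rank-based score ranging −0.5 to +0.5 with E above 0.45 taken as significant binding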
# Conditions: NbGlk1 is a Golden2-like transcription factor of Nicotiana benthamiana; high values mean tight binding; most listed sequences are background and not binding sites; double strand, one strand shown
row,Sequence,binding signal [E-score]
1,AATGCCGG,-0.0722
2,AGACTTTC,-0.181
3,ATGCCGGG,-0.115
4,ACCAGTTG,-0.0523
5,ACGGGCGA,0.0516
6,AAAGCCAC,-0.186
7,AGGCCCGA,-0.205
8,CACCCGGG,-0.277
9,AGTACTCG,-0.182
10,AACTTTCT,-0.101
11,AATGTGGC,-0.0671
12,ACGCCTAT,-0.162
13,AAGGTTAC,-0.158
14,CACAAAGA,0.111
15,AGCAATCG,0.308
16,ATATATAG,0.145
17,AATGGTCA,-0.0407
18,AAGTTGTA,0.0647
19,AGAACTGG,-0.021
20,ACCCATGG,-0.217
21,ACCGCTAA,-0.0946
22,ACCACGGA,0.00649

row,Sequence,binding signal [E-score]
1,AGAACAAA,0.0155
2,ACGTGGGA,-0.00296
3,AACAGATC,0.305
4,AGGTCACT,-0.15
5,ATAATGGG,0.0867
6,ATGTTATA,0.103
7,ATAGAAAT,0.249
8,ACTGTCTC,-0.222
9,CACATCAA,-0.0693
10,AGCTAAGG,-0.25
11,ACTAGCAC,-0.164
12,ATCTACTC,0.228
13,AAAAAGAT,0.248
14,ATAACTGC,0.0652
15,ATCCAGAA,0.288
16,ATTCACAA,0.218
17,ATGGTAGC,-0.0955
18,CACTGAGG,-0.207
19,AATGCCTG,-0.108
20,AGGCGGAC,-0.191
21,AAACTTAC,0.0331
22,AACTGTTC,-0.114

row,Sequence,binding signal [E-score]
1,ATCATTGC,0.109
2,AGGGTTAG,-0.196
3,AAGAGACT,-0.158
4,AGAGTCCA,-0.219
5,ACTACCTA,-0.0397
6,AACTGCCA,-0.199
7,ATTGGTCC,-0.173
8,ATCCCAAG,0.206
9,AATACACC,0.0683
10,ATATTGGA,0.241
11,AATGGCCG,-0.194
12,ACGAACGT,-0.196
13,ATCCATAC,0.188
14,ATGAAGCG,-0.0903
15,ATACACAG,0.0651
16,AAAATCAG,0.381
17,AGAGGAGG,-0.247
18,ACCTGCGC,-0.155
19,AGTCCAAC,-0.221
20,ATACTGCA,0.18
21,ACTAAGTG,-0.129
22,ATGACAGC,-0.0999

row,Sequence,binding signal [E-score]
1,ACGCCTTA,-0.0918
2,ACGGTTCA,-0.129
3,ATGTGCCG,-0.00783
4,ACGCCTAA,-0.0313
5,ATACTCCG,0.101
6,ACATGTCT,-0.128
7,CAACGTGA,-0.117
8,AAGAAAGC,-0.167
9,ACGGGGAC,-0.279
10,AGCTGCAC,-0.094
11,ATTCGGAG,0.135
12,CAATATGC,-0.0381
13,ATCCGCAC,0.284
14,AAATTAAG,0.148
15,AAAGAATA,0.113
16,AATACAAT,0.174
17,ATGCTTTG,-0.0436
18,CACTCTCG,-0.26
19,ATATGCTC,0.187
20,AGGGAGGG,-0.137
